Reference: the supplement of paper PMC8728848
This is one part of the list.

Legend:
Experiment in all cases: glycan array binding signal (z-score within array); higher = stronger binding
Conditions in all cases: glycan notation: IUPAC condensed, linker removed
[1] = biological target: Fuc(a1-2)[Gal(a1-4)]Gal(b1-4)GlcNAc
Method in brief: (§1)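 Glycan array binding is given as a within-array Z-score, which can be read as non-binding when negative. The arrays, 3228 of them, came from the Consortium for Functional Glycomics database and were retained only where the protein sequence was available. Z-scores were averaged across arrays of the same protein sequence at different concentrations or buffers and across linkers.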

[2] = biological target: Fuc(a1-2)[GalNAc(a1-3)]Gal
Method in brief: as §1

[3] = biological target: Fuc(a1-2)[GalNAc(a1-3)]Gal(b1-3)GalNAc(a1-3)[Fuc(a1-2)]Gal(b1-4)GlcNAc
Method in brief: as §1

[4] = biological target: Fuc(a1-2)[GalNAc(a1-3)]Gal(b1-3)GlcNAc
Method in brief: as §1

[5] = biological target: Fuc(a1-2)[GalNAc(a1-3)]Gal(b1-3)GlcNAc(b1-2)Man(a1-3)[Fuc(a1-2)[GalNAc(a1-3)]Gal(b1-3)GlcNAc(b1-2)Man(a1-6)]Man(b1-4)GlcNAc(b1-4)GlcNAc
Method in brief: as §1

[6] = biological target: Fuc(a1-2)[GalNAc(a1-3)]Gal(b1-4)Glc
Method in brief: as §1

[7] = biological target: Fuc(a1-2)[GalNAc(a1-3)]Gal(b1-4)GlcNAc
Method in brief: as §1

[8] = biological target: Fuc(a1-2)[GalNAc(a1-3)]Gal(b1-4)GlcNAc(b1-2)Man(a1-3)[Fuc(a1-2)[GalNAc(a1-3)]Gal(b1-4)GlcNAc(b1-2)Man(a1-6)]Man(b1-4)GlcNAc(b1-4)GlcNAc
Method in brief: as §1

[9] = biological target: Fuc(a1-2)[GalNAc(a1-3)]Gal(b1-4)GlcNAc(b1-3)Gal(b1-4)GlcNAc
Method in brief: as §1

[10] = biological target: Fuc(a1-2)[GalNAc(a1-3)]Gal(b1-4)GlcNAc(b1-3)Gal(b1-4)GlcNAc(b1-3)Gal(b1-4)GlcNAc
Method in brief: as §1

[11] = biological target: Fuc(a1-2)[GalNAc(a1-3)]Gal(b1-4)[Fuc(a1-3)]GlcNAc
Method in brief: as §1

[12] = biological target: Fuc(a1-2)[GalNAc(a1-4)]Gal(b1-4)GlcNAc
Method in brief: as §1

[13] = biological target: Fuc(a1-2)[GalNAc(b1-3)]Gal
Method in brief: as §1

Fuc(a1-3)GlcNAc = biological target: Fuc(a1-3)GlcNAc
Method in brief: as §1

[14] = biological target: Fuc(a1-3)[Gal(b1-4)]Glc6S
Method in brief: as §1

[15] = biological target: Fuc(a1-3)[Gal(b1-4)]GlcNAc
Method in brief: as §1

[16] = biological target: Fuc(a1-3)[Gal(b1-4)]GlcNAc(b1-2)Man(a1-3)[Fuc(a1-3)[Gal(b1-4)]GlcNAc(b1-2)Man(a1-6)]Man(b1-4)GlcNAc(b1-4)GlcNAc
Method in brief: as §1

[17] = biological target: Fuc(a1-3)[Gal(b1-4)]GlcNAc(b1-3)Gal(b1-3)[Fuc(a1-4)]GlcNAc
Method in brief: as §1

[18] = biological target: Fuc(a1-3)[Gal(b1-4)]GlcNAc(b1-3)GalNAc
Method in brief: as §1

[19] = biological target: Fuc(a1-3)[Gal(b1-4)]GlcNAc(b1-4)Gal(b1-4)[Fuc(a1-3)]GlcNAc
Method in brief: as §1

[20] = biological target: Fuc(a1-3)[Gal(b1-4)]GlcNAc(b1-4)Gal(b1-4)[Fuc(a1-3)]GlcNAc(b1-4)Gal(b1-4)[Fuc(a1-3)]GlcNAc
Method in brief: as §1

[21] = biological target: Fuc(a1-3)[Gal(b1-4)]GlcNAc(b1-6)[Gal(b1-3)GlcNAc(b1-3)]Gal(b1-4)Glc
Method in brief: as §1

[22] = biological target: Fuc(a1-3)[Gal(b1-4)]GlcNAc6S
Method in brief: as §1

[23] = biological target: Fuc(a1-3)[Gal3S(b1-4)]GlcNAc
Method in brief: as §1

[24] = biological target: Fuc(a1-3)[Gal3S(b1-4)]GlcNAc6S
Method in brief: as §1

[25] = biological target: Fuc(a1-3)[GalNAc(b1-4)]GlcNAc
Method in brief: as §1

Fuc(a1-4)GlcNAc = biological target: Fuc(a1-4)GlcNAc
Method in brief: as §1

Fuc(b1-3)GlcNAc = biological target: Fuc(b1-3)GlcNAc
Method in brief: as §1

Gal(a1-2)Gal = biological target: Gal(a1-2)Gal
Method in brief: as §1

Gal(a1-3)Gal = biological target: Gal(a1-3)Gal
Method in brief: as §1

Gal(a1-3)Gal(b1-3)GlcNAc = biological target: Gal(a1-3)Gal(b1-3)GlcNAc
Method in brief: as §1

[26] = biological target: Gal(a1-3)Gal(b1-3)GlcNAc(b1-2)Man(a1-3)[Gal(a1-3)Gal(b1-3)GlcNAc(b1-2)Man(a1-6)]Man(b1-4)GlcNAc(b1-4)GlcNAc
Method in brief: as §1

[27] = biological target: Gal(a1-3)Gal(b1-3)[Fuc(a1-4)]GlcNAc(b1-2)Man(a1-3)[Gal(a1-3)Gal(b1-3)[Fuc(a1-4)]GlcNAc(b1-2)Man(a1-6)]Man(b1-4)GlcNAc(b1-4)GlcNAc
Method in brief: as §1

Gal(a1-3)Gal(b1-4)Glc = biological target: Gal(a1-3)Gal(b1-4)Glc
Method in brief: as §1

Gal(a1-3)Gal(b1-4)GlcNAc = biological target: Gal(a1-3)Gal(b1-4)GlcNAc
Method in brief: as §1

[28] = biological target: Gal(a1-3)Gal(b1-4)GlcNAc(b1-3)GalNAc
Method in brief: as §1

[29] = biological target: Gal(a1-3)Gal(b1-4)[Fuc(a1-3)]GlcNAc
Method in brief: as §1

[30] = biological target: Gal(a1-3)Gal(b1-4)[Fuc(a1-3)]GlcNAc(b1-2)Man(a1-3)[Gal(a1-3)Gal(b1-4)[Fuc(a1-3)]GlcNAc(b1-2)Man(a1-6)]Man(b1-4)GlcNAc(b1-4)GlcNAc
Method in brief: as §1

B1: exo-alpha-sialidase (Propionibacterium acnes), Q6A7G1 (protein)
chain: GSHMSGRAPAPVAATTQPKLVTGDITSTDQSGTNLFFGKKIVRNARGAIMKVDRTWPAAVPAPLPDVRADSSTRMLLGPVVDLAVNEHPEGVFYRIPALATASNGDLLASYDLRPGSAGDAPNPNSIVQRRSRDNGRTWGPQTVIHAGTPGRRKVGYSDPSYLVDPATGRILNFHVKSYDRGFATSEVGTDPDDRHVLHAEVSTSTDNGHTWTHRDITREITSDPTTRTRFVASGQGIALLHGPHAGRLIAQMTVRNSVGQQAQSIYSDDHGITWHAGNPVGRMMDENKVVELSDGTLMLNSRDAARSGRRKVAYSQDGGLTWGPVKLVDDLIDPTNNAQIIRAYPNARAGSAKARILLFTNARNATERVNGTLSVSCDDGRTWVSHQTYMPGEVGYTTAAVQSDGALGVLWERDGIRYSTIPMGWLNSVCPLAPSGRPTSGKPTSGTSLPPTAT
Q: How did the “glycan array binding signal (z-score)” value [1] turn out when B1 was run?
A: -0.352

Q: What about the “glycan array binding signal (z-score)” value [2] of the same binder?
A: -0.332

Q: What about the “glycan array binding signal (z-score)” value [3] of the same binder?
A: -0.319

Q: And the “glycan array binding signal (z-score)” value [4]?
A: -0.343

Q: And the “glycan array binding signal (z-score)” value [5]?
A: -0.369

Q: And the “glycan array binding signal (z-score)” value [6]?
A: -0.31

Q: What about the “glycan array binding signal (z-score)” value [7] of the same binder?
A: -0.342

Q: What about the “glycan array binding signal (z-score)” value [8] of the same binder?
A: -0.343

Q: And the “glycan array binding signal (z-score)” value [9]?
A: -0.368

Q: What about the “glycan array binding signal (z-score)” value [10] of the same binder?
A: -0.335

Q: And the “glycan array binding signal (z-score)” value [11]?
A: -0.223

Q: And the “glycan array binding signal (z-score)” value [12]?
A: -0.353

Q: And the “glycan array binding signal (z-score)” value [13]?
A: -0.308

Q: What about the “glycan array binding signal (z-score)” value (Fuc(a1-3)GlcNAc) of the same binder?
A: -0.3

Q: What about the “glycan array binding signal (z-score)” value [14] of the same binder?
A: -0.356

Q: And the “glycan array binding signal (z-score)” value [15]?
A: -0.339

Q: What about the “glycan array binding signal (z-score)” value [16] of the same binder?
A: -0.301

Q: And the “glycan array binding signal (z-score)” value [17]?
A: -0.358

Q: And the “glycan array binding signal (z-score)” value [18]?
A: -0.21

Q: What about the “glycan array binding signal (z-score)” value [19] of the same binder?
A: -0.311

Q: And the “glycan array binding signal (z-score)” value [20]?
A: -0.365

Q: And the “glycan array binding signal (z-score)” value [21]?
A: -0.335

Q: And the “glycan array binding signal (z-score)” value [22]?
A: -0.351

Q: What about the “glycan array binding signal (z-score)” value [23] of the same binder?
A: -0.348

Q: And the “glycan array binding signal (z-score)” value [24]?
A: -0.19

Q: What about the “glycan array binding signal (z-score)” value [25] of the same binder?
A: -0.307

Q: And the “glycan array binding signal (z-score)” value (Fuc(a1-4)GlcNAc)?
A: -0.332

Q: And the “glycan array binding signal (z-score)” value (Fuc(b1-3)GlcNAc)?
A: -0.252

Q: And the “glycan array binding signal (z-score)” value (Gal(a1-2)Gal)?
A: -0.331

Q: And the “glycan array binding signal (z-score)” value (Gal(a1-3)Gal)?
A: -0.339

Q: And the “glycan array binding signal (z-score)” value (Gal(a1-3)Gal(b1-3)GlcNAc)?
A: -0.273

Q: And the “glycan array binding signal (z-score)” value [26]?
A: -0.211

Q: And the “glycan array binding signal (z-score)” value [27]?
A: -0.357

Q: What about the “glycan array binding signal (z-score)” value (Gal(a1-3)Gal(b1-4)Glc) of the same binder?
A: -0.338

Q: And the “glycan array binding signal (z-score)” value (Gal(a1-3)Gal(b1-4)GlcNAc)?
A: -0.341

Q: What about the “glycan array binding signal (z-score)” value [28] of the same binder?
A: -0.36

Q: And the “glycan array binding signal (z-score)” value [29]?
A: -0.342

Q: What about the “glycan array binding signal (z-score)” value [30] of the same binder?
A: -0.228
